# Read counts are not given, so values of variants with three or more changes are uncertain.
# B1: LINE1-mini (parent)
# chain: GGCAGAGCUCAACACAGCGUGGCAAAGUGGCUGUGGCUAGACUGCC
# Variants of: B1
# Test: self-cleavage, relative activity (ratio to wild type); higher = more cleavage; in vitro, sequencing; the parent is a self-cleaving ribozyme
row,Variant,self-cleavage
1,A16U U28A G30U C31G,0.02
2,G1C A14G G33A,0
3,G19A G36A C46A,0.07
4,C3A C8U A16C G21A G30U G33A,0.39
5,U9G C15U G27C G33C C37A,0.01
6,A12U G33A G36U,0.06
7,G5U C13U C31A G35A G36C A39G,0.06
8,C3G G5U A6C A11C,0.05
9,A4U G17A G33C,0.02
10,U20C G22C C31U,1.14
11,G21A G29U G36A C46U,0.19
12,G5C C18G C37U,0.01
13,U9G A11G C46A,0.03
14,G5A G27A G36A A41C,0.04
15,C18G G30A G40U,0.01
16,G1A U9A C46U,0
17,G2A C15A C23U A41G,0.11
18,G1A A4C A6U A25U G35U G40A,0.18
19,G2U A14U G36U A41C G44A,0
20,C3U A16C G44U,0.04
21,C8A A25U U38A C42U,0.45
22,G2U A4U C15G A24C U34C U43C,0
23,U9A G29C C46U,0.06
24,A6G G21U C23A G40U,0.01

row,Variant,self-cleavage
1,A11U C18U C23U G33U,0.01
2,A12U G22A G35U,0.14
3,G19U A26G C45A C46G,0.03
4,C3U G5A A6C G7A A24U G40U,0.05
5,C10U G17A G19A G40A,0.07
6,G19U C31A A39G,0
7,A25U C31A U43G,0
8,G2A U9G C23A G27U,0.08
9,C3A G7A A12U A25U U38G U43G,0.06
10,C10U A14C A16U G22A U38A G44U,0.01
11,A12U A14G U20G G29A,0.11
12,G2C G27U U38C,0.03
13,G5U A14G C15U C23U,0.08
14,G2A C3U A11C G22U,0.1
15,G1A G21U A39U C45G,0.39
16,A6C G7U A14G C37U,0.02
17,A6U G21U G22U,0.62
18,G7A U34A G36C,0.02
19,G29A A39C A41C,0.04
20,A6G A12U U20G G27U C45U,0.01
21,G2A A25G G36C,0.03
22,C3U G19A A25C U32A U38A,0.04
23,G5C C8U G19U U28C,0.05
24,U20C U32A G44A C46G,0.01

row,Variant,self-cleavage
1,G7A G21U G22A G29C U38C C46G,0.03
2,A24G U32C U34G,0.21
3,G1U C3G C18U U20A C37A U43C,0.08
4,A14C G22U C23U G29U,0.17
5,G7A A16G G40U A41U,0.22
6,A4C A11U A39G C42U,0.04
7,U38A G40U G44A,0.01
8,G5C C10G C23G C37U U38G C45U,0.01
9,G7A C10A G22U G30U,0.01
10,C8U A24C A26C U38A C45G,0.16
11,A24G U28C A41C G44A,0
12,A4G G17A C23A U34C,0.33
13,A16U G35U G36U,0.14
14,G2A C3A G44U C46A,1.97
15,A4G G7A A26C C31A G44U,0.19
16,G2U A12G U20C,0.02
17,A11U A14G G29C,0.08
18,C3G A26C U34A,0.05
19,G1U A6C G35U,0.03
20,C23U U28A U32A,0.03
21,G5A A11C A14U C37A,0.03
22,A6C G21U C23A,0.45
23,C13U U20A A25C A26U G29U,0.04
24,C15U U20G C37G,0.01

row,Variant,self-cleavage
1,G5A C8G C18U A39U,0
2,A25G G27U C31A,0.11
3,G2A A4C G22A G29A,0.24
4,A11U C13G A24U,0.01
5,G2U U32C G33A U38C,0.02
6,U9G C15A G21A C31G,0.25
7,G1A C18U A25G A39U,0.15
8,G5U A6G A16C,0.05
9,G2A A12G C45A,0.14
10,G29U G36A C37G,0.02
11,G1C G2A U9A G19A C23A,0.06
12,C3G C8G U38C,0.31
13,A6U G7C A25G A39U,0.2
14,C23U A25C A41U,0.49
15,G2C A24C G33A,0.08
16,C15G G35C A39U C42A,0.04
17,G22C G29U U32A,0.05
18,A16G G17U A26C A39G C45G,0.06
19,G1U C3A G17A G22C C31G U32C G44U,0.1
20,C15U G30U C31A G35C C45A,0.12
21,G7C G35C U43G,0.01
22,C8U A14G C15U G40U,0.12
23,G7C C13A U34G,0.04
24,C3U A4C C18G G29U G36U C37A,1.41

row,Variant,self-cleavage
1,G2A U9C U34A C46U,0.03
2,U9G C10G C31G U34A,0
3,G21A U28G G35A A39G,0.71
4,G1C A24U C46A,0.09
5,G2U C31G C46A,0.03
6,G5A G19U G27U,0.28
7,G7A A12C C31G C45A,0.01
8,G5A C15G G21C U32G,0.06
9,A6U G17U U34C G35U,0.15
10,G1U C10A C18U,0.01
11,A12C C15A C18U A39C C46A,0.02
12,G5A C13U G19C A24C,0.07
13,G1C A12C C31G U43A,0
14,C23A U28G G33A,0.05
15,C8G U20A G22C A24U A25G,0.59
16,G19U C23U U34A G40U,0.02
17,G2A C13G G17C C23A,0.45
18,G7U G21A U34G C37A C46U,0.08
19,A26G G27C G44C,0.18
20,C8U C10A C18A C45A C46U,0.03
21,G17C G27C U28G,0.55
22,C13G G19C C23U C37G G44A,0.05
23,G2C C13U G17A C18A G35C,0.33
24,A4U G19C C45U,0.02

row,Variant,self-cleavage
1,G1C G2A C10A U34A G35A G36A,0
2,G27A G30U U34C,0.16
3,C8U C13U C15G G17C U28C G40U,0.17
4,A12C G30C U34C,0
5,G7C G30U A41C,0.06
6,C13G A25U U28C G30A,0.1
7,G7U A25C G33U,0.04
8,G5U C23G U32C U34A A39C,0.01
9,C15G U20C U28A G30U,0.01
10,C15U C18U C23U C37A,0.75
11,A6G C13U G17C A26U,0.07
12,C3U A11U U34A C46A,0.03
13,C13A A14C U28G G29U,0.01
14,G7A U20G C23G,0.28
15,G2A C10A C31G,0.03
16,A14U G35A U38C,0
17,G7U G27C U38A,0.01
18,A25C U28A G35C G44C,0.06
19,C23G G40U C42A,0.02
20,A14G C23G A41U,0.13
21,C3A G5U C8A C10G U28C C45G,0.05
22,C8G U34G A39G G40A,0.04
23,G2U G5C U32C G33U C42A,0.01
24,G2U C3U C37A,0.06

row,Variant,self-cleavage
1,G1A A4C C10U G27U U38G,0
2,G2U A4G A6U C31A G35C C42U,0.04
3,A24U G29U A39U,0.9
4,G5A G21A G30U,0.21
5,G7U A12G A24U G30A C31G A41U C42U,0.05
6,C15A G17U G19U G33U G40C C42U,0.06
7,U9A G17C C18U C23U,0.02
8,G2C A16U G17U C18A G29U G30A,0.01
9,A6C A12G G21U G33A U43G,0.01
10,A25U U32G G35C,0.26
11,C18G C23U C37U,0.05
12,A12G C18A G27C G33U C45U,0.13
13,G5U G17A A25C C31A,0.01
14,G17A U20G C23U,0.07
15,G2U G5C C10U A11C G19U,0.01
16,G29A U38C G44C,0.02
17,C3G A4C A6U C42A,0.06
18,G19A G21C G29U G44U C45A,0.03
19,C15A C31A C46A,0.07
20,A11G C13A G40A,0.02
21,A14C G22C G33U A39G,0
22,G1A G2A U9A A12G U32G,0.07
23,G7C C10A G29U,0.04
